Among all 150,000 compounds or so, about 540 (0.36%) showed an effect of 50% or more. Some of the results follow.

For the test, the system named is Plasmodium falciparum. The experiment in a line: Primary screen in NF54 nanoGlo assay, in single point, at 2uM, 72h; a lower Z score goes with more inhibition. Particulars: timepoint 72 hour. The format is functional, Erythrocyte.
On to `Cc1cc(O[C@H]2CCN(C(=O)Nc3ccc(C)c(C)c3)C2)nc(C)n1`, for which the “% Inhibition” value was -8% and the Z score worked out at 1.19.
For the molecule `O=C(NC(c1ccccc1)c1ccccc1)c1cn(CC2CCCCC2)nn1`, the “% Inhibition” value was 3% and the Z score was -0.41.
In the case of `O=C(Cn1cccn1)N1CC(O)CC1c1ccc(C(F)(F)F)cc1` (stereo unspecified), the “% Inhibition” value was -11% and the Z score is 1.25.
The corresponding values for `Cc1cn(C(C)c2ccccc2)nc1NC(=O)N1CCCC(O)C1` (stereo unspecified) are 10% and -1.23.
With `Cc1cc(C)c(C)c(OCc2nc(CN(C)C(=O)c3cccs3)cs2)c1`, the “% Inhibition” value was -4% and the Z score stood at 0.56.
The corresponding values for `COc1cccc(C(=O)N2CCC(CN3C[C@@H](C(=O)N4CCOCC4)CC3=O)CC2)c1C` are -11% and 1.41.
Consider `COc1ccccc1N1CCN(c2nccn3nc(-c4ccccc4C)cc23)CC1`, for which the “% Inhibition” value is listed as -1% and the Z score worked out at 0.11.
`C[C@@H]1COCCN(C(=O)Nc2ccccc2N2CCCC2=O)C1`: the “% Inhibition” value was -2% and the Z score worked out at 0.38.
With `O=C(c1cccs1)N1CCC[C@H](Nc2ncnc3c2CCNCC3)C1`, the “% Inhibition” value was -3% and the Z score is given as 0.44.
The like results for `O=C(CNC1CC(c2ccccc2)C1)NCc1ccco1` (stereo unspecified) were, in that order, -8% and 1.01.
On to `C#CCN(Cc1ccco1)C(=O)Cc1csc(-c2nnc[nH]2)n1`, for which the “% Inhibition” value was -7% and the Z score was 1.04.
Take `Cc1ccc(NC(=O)Cn2nc(N3CCOCC3)c3ccccc3c2=O)cc1`: the “% Inhibition” value is listed as -4% and the Z score was found to be 0.65.
The like results for `COc1cccc([C@@H]2CC(=O)c3c(nc4c(cnn4-c4ccc(C)cc4)c3N)C2)c1` were, in that order, -10% and 1.27.
For `Cc1ccc(-c2cc(CN3CCOCC3)[nH]n2)o1`, the “% Inhibition” value was 1% and the Z score was -0.2.
`Cc1ccc(C#N)c(N2C[C@@H]3OC(=O)N(CCc4cccc(Cl)c4)[C@@H]3C2)n1`: the “% Inhibition” value is given as -9% and the Z score was 1.
The corresponding values for `Cc1nsc(C)c1-c1noc(CC2CC(F)(F)C2)n1` are -11% and 1.11.
As to `COC(=O)N[C@@H](C)C(=O)NCc1ccc2c(c1)nc(C)n2C`, the “% Inhibition” value was -12% and the Z score stood at 1.69.
For the molecule `Cc1ccc2[nH]c(-c3ccccc3NC(=O)CC3CCCC3)nc2c1`, the “% Inhibition” value was -6% and the Z score is 0.79.
`COCCNc1nc(-c2ccc(F)cc2F)cc(-c2c(C)noc2C)n1`: the “% Inhibition” value stood at 5% and the Z score is given as -0.92.
Regarding `CC1(C)CC(N2C(=O)CCC2CCNCc2cc3c(cc2Cl)OCO3)CCO1` (stereo unspecified), the “% Inhibition” value was -5% and the Z score is 0.69.
For the molecule `Cn1nc(-c2nc(-c3ccco3)nn2C2CCCCC2)ccc1=O`, the “% Inhibition” value is -16% and the Z score was 2.41.
The like results for `O=S(=O)(c1ccc(Cl)s1)N1CCc2nc(-c3ccc(Cl)cc3)ncc2C1` were, in that order, -11% and 1.78.
For `CC1CCC(O)C(C2CCCN2C(=O)Nc2ccsc2Cl)C1` (stereo unspecified), the “% Inhibition” value is -2% and the Z score is recorded as 0.3.

What is called % Inhibition is the change of the read-out against control, counted positive when it falls.

The record behind these values is ChEMBL document CHEMBL4888484, “Replenishing the malaria drug discovery pipeline: Screening and hit evaluation of the MMV Hit Generation Library 1 (HGL1) against asexual blood stage Plasmodium falciparum ,using a nano luciferase reporter read-out” (2022).
